We go through 45 compounds from article PMC4336329 (PLoS ONE, 2015).

Structures are written as SMILES. Hit rate of the full screen: of about 310,000 compounds, about 2,200 (0.71%) showed an effect of 50% or more. The effect is printed as a negative number. This is one part of the list.

Chain of human ether-à-go-go-related gene (hERG) potassium channel (Q12809 whole entry, looked up): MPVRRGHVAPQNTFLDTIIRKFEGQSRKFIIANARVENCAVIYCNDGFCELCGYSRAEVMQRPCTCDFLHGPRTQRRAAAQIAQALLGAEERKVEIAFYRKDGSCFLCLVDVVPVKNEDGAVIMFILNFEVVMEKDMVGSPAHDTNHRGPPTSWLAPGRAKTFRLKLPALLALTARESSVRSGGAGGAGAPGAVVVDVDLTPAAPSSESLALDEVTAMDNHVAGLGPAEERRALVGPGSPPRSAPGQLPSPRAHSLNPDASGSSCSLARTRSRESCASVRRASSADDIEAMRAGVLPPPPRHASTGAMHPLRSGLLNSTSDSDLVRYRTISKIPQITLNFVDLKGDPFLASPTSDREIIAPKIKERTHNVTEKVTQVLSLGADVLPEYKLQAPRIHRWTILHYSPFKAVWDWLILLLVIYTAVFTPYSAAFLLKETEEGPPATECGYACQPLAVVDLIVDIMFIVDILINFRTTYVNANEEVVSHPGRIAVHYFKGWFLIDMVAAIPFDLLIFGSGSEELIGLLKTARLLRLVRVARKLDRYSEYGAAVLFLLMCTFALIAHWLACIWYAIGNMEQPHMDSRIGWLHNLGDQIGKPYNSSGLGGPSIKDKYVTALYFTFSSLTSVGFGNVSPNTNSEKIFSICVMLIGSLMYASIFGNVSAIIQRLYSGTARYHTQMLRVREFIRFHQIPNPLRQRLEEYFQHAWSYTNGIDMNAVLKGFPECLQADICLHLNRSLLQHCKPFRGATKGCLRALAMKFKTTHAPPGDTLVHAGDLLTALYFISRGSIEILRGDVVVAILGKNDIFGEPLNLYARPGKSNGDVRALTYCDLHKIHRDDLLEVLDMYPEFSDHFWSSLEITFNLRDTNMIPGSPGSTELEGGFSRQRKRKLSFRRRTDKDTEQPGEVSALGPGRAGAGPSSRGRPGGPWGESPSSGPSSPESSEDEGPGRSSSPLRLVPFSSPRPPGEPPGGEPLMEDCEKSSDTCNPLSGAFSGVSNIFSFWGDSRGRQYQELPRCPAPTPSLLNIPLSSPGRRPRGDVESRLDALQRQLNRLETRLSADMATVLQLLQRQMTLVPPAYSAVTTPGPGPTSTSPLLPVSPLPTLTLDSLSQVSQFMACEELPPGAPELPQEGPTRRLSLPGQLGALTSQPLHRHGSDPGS

This test addresses human ether-à-go-go-related gene (hERG) potassium channel (human, UniProt Q12809). The test can be described thus: primary screen, population patch clamp on CHO cells stably expressing hERG.
With `O=C(NCc1ccccc1)C1=C[C@@H](c2ccc(Br)cc2)C[C@@H](OCCCCO)O1`, the “hERG current change (%, negative = inhibition) at 1uM” value is recorded as 4.43%.

On to `COc1ccc(NC(=O)C2CCCN2S(=O)(=O)c2ccc(C)cc2)cc1` (stereo not drawn), for which the “hERG current change (%, negative = inhibition) at 1uM” value was -0.967%.

Take `CCN(CC(=O)Nc1ccc2c(c1)OCCO2)S(=O)(=O)c1ccc(F)cc1`: the “hERG current change (%, negative = inhibition) at 1uM” value came out at 13.1%.

As to `C=CCNC(=O)/C(=C/c1ccccc1OCC)NC(=O)c1ccccc1`, the “hERG current change (%, negative = inhibition) at 1uM” value is given as 9.73%.

On to `COC(=O)c1ccc(NC(=O)CSc2nc3ccccc3c(=O)[nH]2)cc1`, for which the “hERG current change (%, negative = inhibition) at 1uM” value amounted to 3.69%.

Consider `CCc1ccccc1NC(=O)C1CCCN1S(=O)(=O)c1ccc2c(c1)n(C)c(=O)c(=O)n2C` (stereo not drawn), for which the “hERG current change (%, negative = inhibition) at 1uM” value turned out to be 1.13%.

For the compound `CC(C)CC(C(=O)OCC(=O)Nc1ncc(Cl)cc1Cl)N1C(=O)c2ccccc2C1=O` (stereo not drawn), the “hERG current change (%, negative = inhibition) at 1uM” value is listed as 9.79%.

Consider `Cc1cc(SCC(=O)N/N=C/c2ccco2)nc2ccccc12`, for which the “hERG current change (%, negative = inhibition) at 1uM” value is 17.6%.

For the compound `O=C(CN1CCN(c2ccc(C(F)(F)F)cn2)CC1)NCc1ccc2c(c1)OCO2`, the “hERG current change (%, negative = inhibition) at 1uM” value is reported as -49.1%.

For `O=C(CSc1nc2ccccc2s1)NNC(=S)Nc1ccc(Br)cc1`, the “hERG current change (%, negative = inhibition) at 1uM” value is 11.3%.

As for `C=CCO/N=C/C1C(=O)CC(C)(C)CC1=O`, the “hERG current change (%, negative = inhibition) at 1uM” value came to 3.48%.

Turning to `O=C(NC1CCCC1)c1ccc(CN2CCOCC2)cc1`, the “hERG current change (%, negative = inhibition) at 1uM” value came to 8.29%.

Take `COc1ccc(OCC(=O)N/N=C(\C)c2ccc(OC)cc2)cc1`: the “hERG current change (%, negative = inhibition) at 1uM” value amounted to 6.37%.

Consider `COc1ccc(/C=N\NC(=O)c2ccccc2)cc1COc1ccc(F)cc1`, for which the “hERG current change (%, negative = inhibition) at 1uM” value is on record as 4.81%.

In the case of `Cc1cccc(C)c1NC(=O)C1CCCN1S(=O)(=O)c1ccc2c(c1)n(C)c(=O)c(=O)n2C` (stereo not drawn), the “hERG current change (%, negative = inhibition) at 1uM” value was found to be 8.92%.

On to `O=C(CSc1cccc(C(F)(F)F)c1)NC(=O)c1ccccc1`, for which the “hERG current change (%, negative = inhibition) at 1uM” value is given as 10.7%.

Regarding `COc1ccc(S(=O)(=O)Nc2ccc3oc4ncccc4c(=O)c3c2)cc1OC`, the “hERG current change (%, negative = inhibition) at 1uM” value stood at 7.32%.

Take `O=C(O)CC(c1ccccc1)n1cnnn1` (stereo not drawn): the “hERG current change (%, negative = inhibition) at 1uM” value turned out to be 6.34%.

`CCN(CC)CCCN=Cc1c(O)n(-c2cccc(C)c2C)c(=O)[nH]c1=O`: the “hERG current change (%, negative = inhibition) at 1uM” value is given as 6.07%.

`CC(Sc1nnnn1C)C(=O)NC(=O)NC1CCCCC1` (stereo not drawn): the “hERG current change (%, negative = inhibition) at 1uM” value was 10.7%.

As to `C=CCn1c(-c2cccc(Cl)c2)n[nH]c1=S`, the “hERG current change (%, negative = inhibition) at 1uM” value turned out to be 11.4%.

On to `CCCn1c(=O)c2ccccc2n2c(SCC(=O)Nc3cc(C)on3)nnc12`, for which the “hERG current change (%, negative = inhibition) at 1uM” value stood at 12.4%.

With `Cc1cc(C)nc(SCc2nnc(SCc3ccc([N+](=O)[O-])cc3)n2Cc2ccco2)n1`, the “hERG current change (%, negative = inhibition) at 1uM” value is -57.5%.

`CCC(C)(NC(=O)c1ccccc1)C(=O)O` (stereo not drawn): the “hERG current change (%, negative = inhibition) at 1uM” value worked out at 8.79%.

In the case of `COc1ccc(CCNC(=O)CN(c2ccccc2OC)S(C)(=O)=O)cc1OC`, the “hERG current change (%, negative = inhibition) at 1uM” value was found to be 13.5%.

Take `O=C(O)Cn1c(SC2CCCCC2)nc2ccccc21`: the “hERG current change (%, negative = inhibition) at 1uM” value is -7.66%.

Regarding `Cc1c(OCC(F)(F)F)ccnc1CS(=O)c1nc2ccccc2[nH]1` (stereo not drawn), the “hERG current change (%, negative = inhibition) at 1uM” value was determined as 16.6%.

Take `N#CCC(=O)N/N=C/c1ccc(SCC(=O)Nc2ccccc2)o1`: the “hERG current change (%, negative = inhibition) at 1uM” value is recorded as 15.1%.

Regarding `Nc1ccccc1C#Cc1ccc([N+](=O)[O-])cc1`, the “hERG current change (%, negative = inhibition) at 1uM” value is 10.5%.

In the case of `CCCNC(=O)C(Cc1ccccc1F)NC(=O)c1ccccn1` (stereo not drawn), the “hERG current change (%, negative = inhibition) at 1uM” value came to 18.2%.

For `Cc1ccsc1C(=O)Nc1ccccc1N1CCOCC1`, the “hERG current change (%, negative = inhibition) at 1uM” value is -1.92%.

With `Cc1cccc(NC(=O)C2CCCN2C(=O)OCc2ccccc2)c1` (stereo not drawn), the “hERG current change (%, negative = inhibition) at 1uM” value is recorded as 11.5%.

Take `COc1ccc(-n2nc(C(=O)NCC(=O)NCCCN3CC(C)CC(C)C3)c3ccccc3c2=O)cc1Cl` (stereo not drawn): the “hERG current change (%, negative = inhibition) at 1uM” value is reported as -44.5%.

With `CCN(CC)C(=O)C(C(=O)c1cccc([N+](=O)[O-])c1)n1cc(Cl)ccc1=O` (stereo not drawn), the “hERG current change (%, negative = inhibition) at 1uM” value was determined as 12.4%.

`S=C(NCCc1ccccc1)Nc1ccc(Cl)cc1Cl`: the “hERG current change (%, negative = inhibition) at 1uM” value amounted to 9.49%.

In the case of `CCCn1c(=O)c(C(=O)N/N=C/c2ccc(F)cc2)c(O)c2ccccc21`, the “hERG current change (%, negative = inhibition) at 1uM” value was determined as 8.96%.

Regarding `COC/C=C/C1=CC2=CC(=O)C(C)(OC(=O)c3cnc4ccccc4n3)C(=O)C2=CN1C1CC1` (stereo not drawn), the “hERG current change (%, negative = inhibition) at 1uM” value is recorded as 9.57%.

As to `Cc1ccc(CC(=O)NNC(=O)c2ccncc2)cc1C`, the “hERG current change (%, negative = inhibition) at 1uM” value was 10.6%.

For the compound `O=C(O)CCCCCN1C(=O)/C(=C\c2ccc(-c3ccc(Cl)cc3)o2)SC1=S`, the “hERG current change (%, negative = inhibition) at 1uM” value is recorded as 15.6%.

Regarding `O=C(O)c1cc[c]([Hg][Cl])cc1`, the “hERG current change (%, negative = inhibition) at 1uM” value is -0.162%.

As for `Cc1ccc(-n2ncc3c(N4CCCC4)ncnc32)c(C)c1`, the “hERG current change (%, negative = inhibition) at 1uM” value was 0.641%.

As to `COC(=O)C1=C(c2cccc(C#N)c2)C[C@@H]2CC[C@H]1N2C(=O)N1CCc2cc(OC)c(OC)cc2C1`, the “hERG current change (%, negative = inhibition) at 1uM” value is recorded as 17.1%.

On to `COc1ccc(OC)c(C2c3[nH]c4ccccc4c3C[C@H]3C(=O)N(C4CC4)CC(=O)N23)c1` (stereo partly drawn), for which the “hERG current change (%, negative = inhibition) at 1uM” value was 4.18%.

`COc1cc(OC)cc(C(=O)N[C@H](C(=O)Nc2cccc(S(=O)(=O)N3CCCC3)c2)C(C)C)c1`: the “hERG current change (%, negative = inhibition) at 1uM” value is reported as 12.3%.

As to `CSc1ccccc1NC(=O)c1cc(-c2cccnc2)nc2ccc(Br)cc12`, the “hERG current change (%, negative = inhibition) at 1uM” value is 19%.
